According to ChEMBL document CHEMBL4888484, “Replenishing the malaria drug discovery pipeline: Screening and hit evaluation of the MMV Hit Generation Library 1 (HGL1) against asexual blood stage Plasmodium falciparum ,using a nano luciferase reporter read-out” (2022):
About 540 (0.36%) of roughly 150,000 compounds showed an effect of 50% or more. Some of the results follow.

tested on: Plasmodium falciparum; experiment: Primary screen in NF54 nanoGlo assay, in single point, at 2uM, 72h; a lower Z score goes with more inhibition; assay type: functional, Erythrocyte; details: timepoint 72 hour

| Compound | % Inhibition [%] | Z score |
| --- | --- | --- |
| CC(C)N1CCN(C(=O)CCc2nnc(Cc3cccc(C(F)(F)F)c3)o2)CC1 | -13 | 1.93 |
| CN(Cc1ccccc1)[C@@H]1COC2(C1)CN(C(=O)COCc1ccccc1)C2 | -3 | 0.4 |
| CCc1nc(CN(C)c2cc(C(=O)N3CCOCC3)c3ccccc3n2)cs1 | 5 | -0.59 |
| CCc1nc2cc(C(=O)NCCc3c[nH]c4ccccc34)cc(NC(=O)c3ccccc3OC)c2n1C | -10 | 1.39 |
| Cc1nn(Cc2cccc(C(F)(F)F)c2)c(=O)n1-c1cccc(C(F)(F)F)c1 | 0 | -0.06 |
| O=C(c1ccc(-c2ccncc2F)cc1)N1CC[C@@H](O)C1 | 2 | -0.39 |
| CCCc1nc(C(=O)Nc2cc(-c3nnc(C)o3)ccc2OC)cs1 | 2 | -0.41 |
| CN1C[C@@H]2C[C@H]1C(=O)N[C@H](Cc1ccccc1)C(=O)NCc1cn(nn1)CCCOc1ccc(cc1Cl)C(=O)N2 | 14 | -1.89 |
| CN1CCN(c2nc3c(c(N4CCCCC4)n2)CN(C(=O)c2ccccc2)CC3)CC1 | 5 | -0.75 |
| Cc1ccc(C)c(-c2cc(C(=O)N(CCC(=O)NCC3CC3)CC(C)C)no2)c1 | 9 | -0.84 |
| Cc1cccc(OCC(=O)Nc2cc(-c3noc(C4CCC4)n3)sc2C)c1 | 1 | -0.17 |
| Cc1noc(C)c1CC(=O)N1CCCCCCNC(=O)[C@@H]2CCCC[C@@H]21 | -17 | 2.22 |
| COc1ccc(CN2CC(CN(C(=O)c3ccc(F)cc3)C(C)C)C(c3cccc(C(F)(F)F)c3)C2)cc1 (stereo not drawn) | -16 | 2.28 |
| Cc1ncsc1CN(Cc1ccccc1)C(=O)[C@@H]1CCCN1S(C)(=O)=O | -14 | 2.88 |
| CCOc1ncc(NC(=O)CC)c(OCC)n1 | -7 | 1.27 |
| COCCNC(=O)c1ccc2c(c1)N(C)[C@@H](CC(=O)NCC(F)F)CO2 | -14 | 2.04 |
| CCC1(CC)NC(=O)N(CC(=O)Nc2ccc3c(c2)C(=O)NCC3)C1=O | -14 | 1.56 |
| CCOCC(=O)N[C@H]1CN(CCS(C)(=O)=O)C[C@@H]1c1ccccc1 | -11 | 1.96 |
| Cc1noc(-c2cccn3c(CNC(=O)[C@H](C)n4cccn4)nnc23)n1 | -18 | 2.27 |
| CCN(Cc1nc2ccccc2c(=O)[nH]1)C(=O)C1CCC1 | 1 | -0.21 |
| Cc1ccc(-n2nc(-c3ccccc3Cl)c(Cl)c2-c2ccccc2Cl)cc1Cl | 31 | -3.48 |

| Compound | % Inhibition [%] | Z score |
| --- | --- | --- |
| CN(C)c1nc(N[C@H]2COc3ccccc32)ncc1F | 3 | -0.47 |
| COCCN(Cc1ccoc1)S(=O)(=O)c1cc(F)ccc1OC | -8 | 1 |
| O=C1CC2(CCN(c3ncnc4[nH]ccc34)CC2)CN1 | -3 | 0.37 |
| O=C(N1CC2CCCCC2C1)C1(c2ccccc2)CCOCC1 (stereo not drawn) | -2 | 0.24 |
| Cc1c(C(=O)O)nn(C(C)C)c1Oc1ccc(NC(=O)CC(C)C)cc1S(=O)(=O)NC(C)C | 11 | -1.35 |
| O=S(=O)(C1CC1)N1CCN(Cc2cccc3cc[nH]c23)CC1 | -2 | 0.3 |
| CN(C)C(=O)OCCn1cc(Br)cn1 | -10 | 1.36 |
| Cc1cc(C#N)ccc1S(=O)(=O)Nc1[nH]nc(C)c1-c1ccc2c(c1)OCCO2 | 6 | -1.06 |
| C[C@H](NC(=O)N(CC1CC1)CC1CC1)c1nc(C2CCCCC2)no1 | 4 | -0.48 |
| Cc1nc(N(C)C)ncc1C(=O)N(C)CCCc1nccn1C | -1 | 0.13 |
| CCn1c(N2CCC[C@H](C(=O)NCc3cccc(C)c3)C2)cc(=O)n(C)c1=O | -5 | 0.84 |
| CC[C@@H](CC#N)NCc1cn(C(C)(C)C)nn1 | -8 | 1.24 |
| NC(=O)[C@H]1CCN(C(=O)c2cc3c(s2)CCC3)C1 | -2 | 0.37 |
| CC(N)C1CCCCN1C(=O)c1ccc2sccc2c1 (stereo not drawn) | -5 | 0.47 |
| Cc1ncccc1C(=O)N(CCN1CCOCC1)C1CCOCC1 | -7 | 1.13 |
| Cc1cccc(O[C@H]2COCCN(C(=O)COc3ccccc3)C2)n1 | 32 | -3.6 |
| CCCCS(=O)(=O)NC[C@H](O)c1cccc(Br)c1 | -3 | 0.45 |
| C=C(C)CN(CC)C(=O)NCC1CCOC1c1ccccc1 (stereo not drawn) | 0 | 0.03 |
| CCN1CCC(CC(=O)N(C)Cc2ccc3c(c2)CN(C)C3)CC1 | 1 | -0.1 |
| Cc1ccc2oc(CN(Cc3cc(F)ccc3F)C(=O)c3ccc(-c4ccccc4)cc3)nc2c1 | 7 | -1.1 |
| Cc1cc(-c2nc(-c3cccs3)no2)on1 | 7 | -1.28 |

| Compound | % Inhibition [%] | Z score |
| --- | --- | --- |
| Cc1ccnc(N2N=C(CC3CC3)CC2=O)c1 | 1 | -0.26 |
| CCOc1ccc(CN2C(=O)CC[C@@]2(C)C(=O)NC2CCCC2)cc1 | -13 | 1.49 |
| CC1(CNC(=O)NCCCCn2ccnc2)CCCC1 | -6 | 0.8 |
| CNC(=O)c1ccc(N2CCC[C@H](c3nc(C)no3)C2)nn1 | 2 | -0.35 |
| Nc1nnc(CCNC(=O)CCC(F)(F)F)s1 | -20 | 1.96 |
| C[C@@H](C1CC1)N(C)C(=O)c1cc(Br)c2c(c1)OCCO2 | -10 | 1.3 |
| Cc1cc(OC2CN(S(=O)(=O)C3CC3)C2)cc(=O)n1C | -5 | 0.59 |
| O=C(c1cnc2cnccc2c1)N1CCOCC2(CC2)C1 | -19 | 2.17 |
| CC[C@@H](CC#N)OC(=O)c1scnc1C | 0 | -0.02 |
| O=C(NCC1(O)CCCCC1)[C@H]1CCC(=O)N(C2CCCCCC2)C1 | 9 | -1.08 |
| Cc1cccc(CN2CCC3(CCO3)CC2)c1 | 11 | -1.42 |
| Cc1c(C(=O)Nc2cc(-c3cccnc3)n[nH]2)cnn1C | -7 | 0.71 |
| O=C(Nc1ccccc1)c1ccc2cc[nH]c2n1 | -11 | 1.97 |
| CCc1ccc(C(=O)N[C@H]2CCc3n[nH]c(=O)cc3C2)cc1 | -18 | 3.06 |
| CN(C(=O)c1cc(S(C)(=O)=O)ccc1Cl)[C@H]1CCCc2cccnc21 | -7 | 1.12 |
| CCn1cnnc1CN(C)C(=O)COC[C@H]1CCCCO1 | 5 | -0.9 |
| COCc1ccc(C2CCCN2CC2CCS(=O)(=O)C2)o1 (stereo not drawn) | 5 | -0.57 |
| CC[C@@H](CO)NC(=O)Nc1sc(-c2ccccc2)nc1C | -14 | 1.63 |
| O=C(Nc1ccc(NC(=O)N2CCC(C(=O)NCC3CC3)CC2)cc1)NC1CCCC1 | -16 | 2.11 |
| O=C1CC2(CCN(S(=O)(=O)N3CCc4ccccc4C3)CC2)CN1 | -8 | 1.37 |
| Cn1c(=O)c2c(nc(N3CCOCC3)n2CCCOc2ccccc2)n(C)c1=O | -6 | 0.83 |

| Compound | % Inhibition [%] | Z score |
| --- | --- | --- |
| CN(C)c1ncc(NS(=O)(=O)CCCC(F)(F)F)cn1 | -1 | 0.15 |
| O=C(NC[C@H]1CCCOC1)Nc1cccc(-n2ccnn2)c1 | -3 | 0.59 |
| Cc1nccc(NC2CCC3(CC2)OCCO3)n1 | -5 | 0.55 |
| CCc1nc(O)c2sc(=S)n(-c3ccccc3)c2n1 | 31 | -3.45 |
| COc1ccc(-c2nn3c(c2C)NC(=O)C[C@H]3C(=O)Nc2cc(F)c(F)c(F)c2)cc1 | -5 | 0.61 |
| Cc1csc(C(C)(C)NC(=O)Nc2cc([C@H]3CCCOC3)nn2C)n1 | 0 | 0.04 |
| Cc1cc2ccccc2c(N2CCC(c3noc(C(C)C)n3)CC2)n1 | 1 | -0.25 |
| CS(=O)(=O)c1ccc(O[C@@H]2CNCCOC2)cc1 | 1 | -0.19 |
| COCc1cc(CN(C)C(=O)c2cnn(Cc3ccccc3)c2)n[nH]1 | -5 | 0.64 |
| Cn1cc(Oc2ccccc2C(=O)Nc2cccnc2O)cn1 | 30 | -0.47 |
| c1coc(CCc2nc(C3(c4ccncc4)CCC3)no2)c1 | -9 | 1.14 |
| COc1ccc(NC(=O)N2C[C@@H]3C[C@H]2C[C@@H]3NC(=O)c2ccccc2)c(C)c1 | 30 | -3.34 |
| Cc1ncoc1C(=O)Oc1ccc(-c2noc(-c3cccnc3)n2)cc1 | -10 | 2.16 |
| Cc1cccc(C2c3[nH]c4ccccc4c3C[C@H]3C(=O)N(c4ccc5c(c4)OCCO5)C(=O)N23)c1 (stereo partly drawn) | -8 | 0.98 |
| COC(=O)[C@@H](C)NC(=O)c1coc(COc2ccc3ncccc3c2)n1 | 9 | -1.05 |
| Cn1cc([C@@H](NC(=O)c2cccc(=O)[nH]2)C(F)(F)F)cn1 | -6 | 0.96 |
| C[C@H](NC(=O)c1cn(C)c(=O)[nH]c1=O)C1=CCCCC1 | 5 | -0.85 |
| Cc1nc(-c2ccnc(NCc3cnc(N(C)C)nc3)c2)n[nH]1 | 5 | -0.63 |
| Cc1ncn(CCNC(=O)[C@H]2C[C@@H]2c2ccccc2)c1C | -3 | 0.64 |
| Cc1ncn(C)c1-c1nc(-c2cccc(CN3CCCCC3)c2)no1 | -7 | 1.35 |
| Cc1ccc(OCCOCCN(C)CCO)c(Cl)c1 | 2 | -0.3 |
